The labels stand for the following.
B1: PhoQ; a variant is named by its letters at X, in order, P23837 (parent)
chain: MKKLLRLFFPLSLRVRFLLATAAVVLVLSLAYGMVALIGYSVSFDKTTFRLLRGESNLFYTLAKWENNKLHVELPENIDKQSPTMTLIYDENGQLLWAQRDVPWLMKMIQPDWLKSNGFHEIEADVNDTSLLLSGDHSIQQQLQEVREDDDDAEMTHSVAVNVYPATSRMPKLTIVVVDTIPVELKSSYMVWSWFIYVLSANLLLVIPLLWVAAWWSLRPIEALAKEVRELEEHNRELLNPATTRELTSLVRNLNRLLKSERERYDKYRTTLTDLTHSLKTPLXXLQXXLRSLRSEKMSVSDAEPVMLEQISRISQQIGYYLHRASMRGGTLLSRELHPVAPLLDNLTSALNKVYQRKGVNISLDISPEISFVGEQNDFVEVMGNVLDNACKYCLEFVEISARQTDEHLYIVVEDDGPGIPLSKREVIFDRGQRVDTLRPGQGVGLAVAREITEQYEGKIVAGESMLGGARMEVIFGRQHSAPKDE

This is one part of the list.

The variants in the assay derive from B1. The experiment in a line: enrichment ratio after two sorts for PhoP signalling (ratio (wild type AVST 3.29)); higher = more functional. The settings on record: with PhoP (E. coli).
YNIQ: the enrichment ratio is not above 0.25.
Under FFSQ stands not above 0.25; under SCHE, not above 0.25.
Regarding SYES, the enrichment ratio is not above 0.25.
Under YSEH stands not above 0.25.
Under QCDM stands not above 0.25.
The value for RDSE was not above 0.25; that for AVRK was not above 0.25; that for RNWC was not above 0.25.
In the case of KADI, the enrichment ratio was not above 0.25.
The value for DKPP was not above 0.25.
Take YAHL: the enrichment ratio was not above 0.25.
The value for GCTH was not above 0.25; that for WISW was not above 0.25; that for TTGI was 9.44.
The value for YRCT was not above 0.25.
The value for FEYA was not above 0.25.
Turning to TWHT, the enrichment ratio is not above 0.25.
Under SFNS stands not above 0.25; under INCV, not above 0.25.
The value for YWYM was not above 0.25; that for TGKY was not above 0.25; that for FSPV was not above 0.25.
The value for HIRQ was not above 0.25; that for FTIG was not above 0.25; that for PYEG was not above 0.25.
In the case of AEQP, the enrichment ratio was not above 0.25.
The value for KIWY was not above 0.25; that for NWHI was not above 0.25.
As to FDAA, the enrichment ratio is not above 0.25.
Regarding AEYM, the enrichment ratio amounted to 3.72.
The value for TRIN was not above 0.25; that for VDLR was not above 0.25; that for TIMR was 3.56.
Consider VRTR, for which the enrichment ratio is not above 0.25.
Under DGRE stands not above 0.25.
Under IYSC stands not above 0.25.
Under VGDL stands 1.06; under LLDF, not above 0.25.
With TLIC, the enrichment ratio was not above 0.25.
The value for PYCK was not above 0.25; that for LPNT was not above 0.25.
The value for NGAN was not above 0.25; that for NMDK was not above 0.25.
Under PSQS stands not above 0.25; under YHRT, not above 0.25.
Regarding QVYC, the enrichment ratio is not above 0.25.
The value for YETH was not above 0.25; that for KHVT was not above 0.25; that for PCRP was not above 0.25.
The value for IEQW was not above 0.25; that for VFNR was not above 0.25.
Under GREW stands not above 0.25; under KNWP, not above 0.25; under SNPA, not above 0.25.
For DKCL, the enrichment ratio was not above 0.25.
The value for DMYT was not above 0.25.
The value for SDKH was not above 0.25; that for YTTL was 3.18; that for NYRL was not above 0.25.
Under RAHC stands not above 0.25; under YINF, 0.532; under YFLN, not above 0.25.
RMKC: the enrichment ratio is not above 0.25.
Under IRHG stands not above 0.25; under EKNM, not above 0.25; under TRIY, not above 0.25.
Under WVSI stands not above 0.25.
Under VRIP stands not above 0.25; under FRSE, 0.705.
For DTTC, the enrichment ratio is not above 0.25.
The value for CTTS was 16.8; that for GNMA was 1.57.
Under NTPA stands not above 0.25.
The value for HAKR was not above 0.25; that for KAAM was not above 0.25.
Regarding AWYG, the enrichment ratio is not above 0.25.
The value for FRRG was not above 0.25.
For RQFR, the enrichment ratio is not above 0.25.
On to RRNA, for which the enrichment ratio is not above 0.25.
Under MYYG stands not above 0.25; under FIMH, not above 0.25; under IEAC, not above 0.25.
The value for SYWI was not above 0.25.
The value for RSET was not above 0.25.
For the variant YVPY, the enrichment ratio was not above 0.25.
In the case of HADF, the enrichment ratio was not above 0.25.
Under ECHY stands not above 0.25; under MSSY, 2.56.
The value for VDFS was not above 0.25; that for RLNQ was not above 0.25; that for NSLN was not above 0.25.
Under IMNY stands not above 0.25; under VWAI, not above 0.25.
WHRL: the enrichment ratio was not above 0.25.
The value for FDCM was not above 0.25.
Under VQLG stands 0.851; under VPTA, not above 0.25; under QHFA, not above 0.25.
The value for EMST was not above 0.25; that for FRDC was not above 0.25.
As to PLVP, the enrichment ratio was not above 0.25.
Under LHMW stands not above 0.25; under YKHD, not above 0.25; under YWWI, not above 0.25.
The value for AQGG was 6.04; that for HYYW was not above 0.25; that for DQFE was not above 0.25.
Under NHAG stands not above 0.25; under MFRR, not above 0.25.
Regarding VRFW, the enrichment ratio is not above 0.25.
Under GWVT stands not above 0.25; under DYWV, not above 0.25; under DHKF, not above 0.25.
As for KFNE, the enrichment ratio is not above 0.25.
The value for IFLG was not above 0.25; that for MMFM was not above 0.25; that for MEIM was 48.5.
As for PSKV, the enrichment ratio was not above 0.25.
Under KLVA stands not above 0.25; under MECS, 11.2.
The value for DSMK was not above 0.25.
The value for YQAI was not above 0.25.
Consider SQIQ, for which the enrichment ratio stood at 10.4.
For the variant FEEH, the enrichment ratio is not above 0.25.
The value for FFQN was not above 0.25.
The value for QAAH was not above 0.25; that for LDMV was not above 0.25; that for SIHA was not above 0.25.
The value for MKQL was not above 0.25.
Turning to FSMN, the enrichment ratio was 1.56.
In the case of YIWI, the enrichment ratio is not above 0.25.
In the case of FVES, the enrichment ratio is not above 0.25.
Under RCMH stands 2.03.
For the variant INYE, the enrichment ratio is not above 0.25.
Turning to IHMN, the enrichment ratio is not above 0.25.
The value for PIIG was not above 0.25; that for YSFR was not above 0.25; that for MNRM was not above 0.25.
NLHW: the enrichment ratio is not above 0.25.
Under RPIL stands not above 0.25.
The value for NMKK was not above 0.25; that for HCLR was not above 0.25.
Consider LAQK, for which the enrichment ratio is not above 0.25.
The value for YVSL was not above 0.25; that for FNTN was not above 0.25; that for QNCI was not above 0.25.
In the case of FQDY, the enrichment ratio is not above 0.25.
The value for QPKY was not above 0.25; that for ANKQ was not above 0.25; that for SKVT was 3.24.
With FIND, the enrichment ratio was not above 0.25.
Regarding FRAS, the enrichment ratio is not above 0.25.
The value for MNVH was not above 0.25.
For EENL, the enrichment ratio is not above 0.25.
For VPEH, the enrichment ratio is not above 0.25.
AHWL: the enrichment ratio is not above 0.25.
Under HRDL stands not above 0.25; under DPIT, not above 0.25; under DWWM, not above 0.25.
EALA: the enrichment ratio is not above 0.25.
Regarding EANM, the enrichment ratio is not above 0.25.
Under YQMD stands 0.351; under VVHD, not above 0.25; under IGEK, not above 0.25.
Under VKNT stands not above 0.25.
Take GPMV: the enrichment ratio is not above 0.25.
Under LCMH stands not above 0.25; under DEYN, not above 0.25; under IGTQ, not above 0.25.
MDHG: the enrichment ratio was not above 0.25.
Under VCMY stands not above 0.25; under GKRA, not above 0.25.
The value for FNHF was not above 0.25.
Regarding DFGL, the enrichment ratio is not above 0.25.
Under GARI stands not above 0.25.
Under QCPI stands not above 0.25; under PCCG, not above 0.25.
The value for PKGW was not above 0.25; that for THVL was not above 0.25.
PGMP: the enrichment ratio is not above 0.25.
The value for ERYT was not above 0.25; that for KEWE was not above 0.25; that for WCDP was 0.342.
For the variant WMHV, the enrichment ratio is not above 0.25.
Under FNEQ stands not above 0.25; under TMEV, 25.
Under FHKH stands not above 0.25; under VYIP, not above 0.25.
The value for MMIP was not above 0.25.
Regarding FRSD, the enrichment ratio was not above 0.25.
Under KSWD stands not above 0.25.
As for EAFP, the enrichment ratio is not above 0.25.
The value for YLEL was not above 0.25; that for HYSQ was not above 0.25.

For the origin of these results see a collection of fitness landscapes (doi:10.1126/science.1257360).
